In one assay the target is T1, RIP3 (Homo sapiens, UniProt Q9Y572).
T1 construct: purchased DiscoverX (KINOMEscan service); host or cells: E. coli BL21-derived (T7 phage) or HEK293
Briefly: KINOMEscan binding assay, RIP3. The conditions noted are these: equilibrium dissociation constant, class symbols. From the text: The Hill Slope was set to −1.

The test system of assay [1] is U937 human histiocytic leukemia cell line. Briefly: Inhibition of TSQ induced necroptosis, 384 well plate format (CellTitre-Glo). The conditions noted are these: Homo sapiens, U-937; U937 cells, TSQ cocktail (TNF, Smac mimetic, Q-VD-OPh), CelltiterGlo; read-out: Inhibition of TSQ-induced necroptosis (IC50 cell-based assay). On the procedure:
[…] ASSAY: Screening compounds for inhibition of TSQ induced necroptosis, 384 well plate format.
Cell Line ID: U937 human histiocytic leukemia cell line.
Cell Concentration (cells/well): Final cell density is 20000 cells per well.
Cell growth medium: HT-RPMI medium+7.4% Fetal Bovine Serum (FBS). Cells are cultured in Corning 150 cm^2 tissue culture flasks with vented caps at 37° C./5% CO2.
Incubation: Plates were incubated at 37° C./5% CO2 in a humidified incubator for 48 hours following addition of compounds and death stimuli (TSQ cocktail).
Compound concentration: 36 μM starting concentration, 1:3 dilution, 10 point
DMSO final concentration (% v/v): 0.3%.
Compounds in TSQ cocktail (T: TNF; S: Smac mimetic; Q: Q-VD-OPh) and their final concentrations:
hTNF-Fc (100 ng/ml)—produced by standard procedures as shown in Bossen et al., J Biol Chem, 2006, 281(20), 13964-13971. […]
The cellular assay was carried out according to the following steps: • 1. […] Read luminescence readout on a plate reader. […]
Percent viability was calculated for each compound according to equation (2):
[formula] • wherein • RawData is the readout of any cell containing a compound of the invention • TA is the total activity provided by the luminescence readout from DMSO only wells (columns 2 and 24)=100% viability • NSA is the non-specific activity provided by DMSO+TSQ wells (columns 1 and 23)=0% viability […]
(In ATP-based viability assays light output follows the ATP content of the culture.)

In another assay the test system is U937 cells. The assay is described as follows: Counter screen: cell viability without the TSQ cocktail (CelltiterGlo). Also on record: species or system human. The settings on record: Homo sapiens, U-937, cell viability by CelltiterGlo, read-out: Off-target effect (IC50 cell-based assay). As to the method:
Counter screen: In parallel, all compounds were tested for their ability to affect cell viability. The same U937 cells were treated with compound in DMSO without the TSQ cocktail. This counter screen enabled evaluation of off-target effects. In this case, cell viability was measured by CelltiterGlo.

Structures are written as SMILES.

T1 sequence (Q9Y572 whole entry): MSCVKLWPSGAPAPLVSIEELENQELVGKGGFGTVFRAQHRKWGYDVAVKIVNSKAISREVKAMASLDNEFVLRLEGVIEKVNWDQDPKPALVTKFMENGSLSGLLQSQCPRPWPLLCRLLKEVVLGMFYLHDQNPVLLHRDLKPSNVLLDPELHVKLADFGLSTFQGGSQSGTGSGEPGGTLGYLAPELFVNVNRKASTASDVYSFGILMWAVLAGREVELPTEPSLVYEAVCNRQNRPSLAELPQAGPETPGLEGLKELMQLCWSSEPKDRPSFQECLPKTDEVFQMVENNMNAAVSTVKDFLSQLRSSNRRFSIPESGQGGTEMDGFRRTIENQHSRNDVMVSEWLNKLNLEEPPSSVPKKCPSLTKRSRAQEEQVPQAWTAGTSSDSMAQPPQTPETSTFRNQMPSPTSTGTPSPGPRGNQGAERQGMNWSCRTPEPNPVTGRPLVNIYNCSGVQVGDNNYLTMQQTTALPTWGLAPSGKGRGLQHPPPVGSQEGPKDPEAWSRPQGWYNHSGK

For `C[C@H](Oc1cc(-c2n[nH]c(Nc3cc4n(n3)CCOC4)c2C(N)=O)ccc1NS(=O)(=O)C(F)F)c1ccc(F)cc1` [Compound 308, (S)-3-(4-((difluoromethyl)sulfonamido)-3-(1-(4-fluorophenyl)ethoxy)phenyl)-5-((6,7-dihydro-4H-pyrazolo[5,1-c][1,4]oxazin-2-yl)amino)-1H-pyrazole-4-carboxamide], the Kd (as a rule, a measure of binding affinity in units of concentration) on RIP3 is more than 30 µM. Further, the IC50 (usually the concentration that gives 50% inhibition) was less than 0.01 µM in assay [1] and more than 30 µM in the assay on U937 cells.
On to `CCc1cc(Nc2[nH]nc(-c3ccc(NS(=O)(=O)C(F)F)c(O[C@@H](C)c4ccc(F)cc4)c3)c2C(N)=O)no1` [Compound 274, (S)-3-(4-((difluoromethyl)sulfonamido)-3-(1-(4-fluorophenyl)ethoxy)phenyl)-5-((5-ethylisoxazol-3-yl)amino)-1H-pyrazole-4-carboxamide], for which the IC50 in assay [1] was 0.01 to 1 µM; with U937 cells, more than 30 µM.
